# Source: a collection of fitness landscapes (doi:10.1016/j.celrep.2020.107928)
# The full ranking holds about 81,000 sequences; the median of “one-hybrid fitness for binding NBS DNA” is about -0.1, and the highest 2% start at about 0.36. This is one part of the list.
# B1: Caulobacter ParB omega fusion; a variant is named by its letters at X, in order, B8GW30 (parent)
# chain: MESVVVGEPGMSEGRRGLGRGLSALLGEVDAAPAQAPGEQLGGSREAPIEILQRNPDQPRRTFREEDLEDLSNSIREKGVLQPILVRPSPDTAGEYQIVAGERAWRAAQRAGLKTVPIMVRELDDLAVLEIGIIENVQRADLNVLEEALSYKVLMEKFERTQENIAQTIGKSXSHVANXMRLLXLPDEVQSYLVSGELTAXHARAIAAAADPVALAKQIIEGGLSVRETEALARKAPNLSAGKSKGGRPPRVKDTDTQALESDLSSVLGLDVSIDHRGSTGTLTITYATLEQLDDLCNRLTRGI
# Variants of: B1
# Test: one-hybrid fitness for binding NBS DNA (the Noc-binding site; scaled: cognate 1, non-cognate 0); higher = stronger binding
# Conditions: with NBS DNA site
# Outline: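 On M9-minus-histidine containing 0.1 mM IPTG and 5 mM 3-AT, E. coli USO cells with a HIS3 reporter, site 19 bp from the promoter, grew 48 hours at 37°C to select Caulobacter ParB libraries randomised at four specificity codons. Plasmids from before and after were Illumina-sequenced, with three replicate libraries pooled and variants under 10 reads left out. Fitness is the log change in variant-to-wild-type read ratio, rescaled against cognate and non-cognate.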
row,Variant,one-hybrid fitness for binding NBS DNA
1,SQMV,≤ 0.2
2,VWTG,≤ 0.2
3,EVES,≤ 0.2
4,DSAT,≤ 0.2
5,RGLN,≤ 0.2
6,FTIT,≤ 0.2
7,SIFS,≤ 0.2
8,RQLS,0.322
9,ALHV,≤ 0.2
10,IYCR,≤ 0.2
11,MLPG,≤ 0.2
12,EGGS,≤ 0.2
13,WMYS,≤ 0.2
14,QHPM,≤ 0.2
15,WWTT,≤ 0.2
16,YLYC,≤ 0.2
17,RWKW,≤ 0.2
18,MMSG,≤ 0.2
19,RPDC,≤ 0.2
20,TWRW,≤ 0.2
21,ALQA,≤ 0.2
22,SQVG,≤ 0.2
23,HMWW,≤ 0.2
24,NSAS,≤ 0.2

row,Variant,one-hybrid fitness for binding NBS DNA
1,QPIG,≤ 0.2
2,VRAG,≤ 0.2
3,PHIS,≤ 0.2
4,RCFF,≤ 0.2
5,PACM,≤ 0.2
6,MQVG,≤ 0.2
7,MCTY,≤ 0.2
8,RLGW,≤ 0.2
9,VDKG,≤ 0.2
10,RCEV,≤ 0.2
11,RAMQ,≤ 0.2
12,CFRG,≤ 0.2
13,RTIN,≤ 0.2
14,VNSR,≤ 0.2
15,QYKG,0.294
16,LTNC,≤ 0.2
17,QMWL,≤ 0.2
18,TRVE,≤ 0.2
19,YADV,≤ 0.2
20,SCFI,≤ 0.2
21,RLIL,≤ 0.2
22,RVIQ,≤ 0.2
23,NLRW,≤ 0.2
24,KVRQ,≤ 0.2

row,Variant,one-hybrid fitness for binding NBS DNA
1,NGSG,≤ 0.2
2,TGHG,≤ 0.2
3,MWKT,≤ 0.2
4,FPSN,≤ 0.2
5,ETTC,≤ 0.2
6,MIIG,≤ 0.2
7,LGTR,≤ 0.2
8,IQRG,≤ 0.2
9,RGQV,≤ 0.2
10,SCRS,≤ 0.2
11,TNHF,≤ 0.2
12,THFL,≤ 0.2
13,IRWP,≤ 0.2
14,HLFS,≤ 0.2
15,RHQK,≤ 0.2
16,MKSG,≤ 0.2
17,NLTN,≤ 0.2
18,TGML,≤ 0.2
19,CPER,≤ 0.2
20,YWRF,≤ 0.2
21,EMGY,≤ 0.2
22,ATYC,≤ 0.2
23,MPYG,≤ 0.2
24,DRGE,≤ 0.2

row,Variant,one-hybrid fitness for binding NBS DNA
1,ANMR,≤ 0.2
2,LSEL,≤ 0.2
3,KSQR,≤ 0.2
4,RDSS,≤ 0.2
5,YKCR,≤ 0.2
6,YTVE,≤ 0.2
7,SYLN,≤ 0.2
8,TPPQ,≤ 0.2
9,LVLK,≤ 0.2
10,TYFR,≤ 0.2
11,TQGQ,≤ 0.2
12,ENKL,≤ 0.2
13,KTCL,≤ 0.2
14,AQEL,≤ 0.2
15,DIMR,≤ 0.2
16,TQDR,≤ 0.2
17,TNNS,≤ 0.2
18,KPNS,≤ 0.2
19,RWQN,≤ 0.2
20,PVMY,≤ 0.2
21,MGVV,≤ 0.2
22,SSYP,≤ 0.2
23,RHLH,≤ 0.2
24,ESNL,≤ 0.2

row,Variant,one-hybrid fitness for binding NBS DNA
1,LAQR,≤ 0.2
2,QYHI,≤ 0.2
3,KRQS,0.443
4,TCTH,≤ 0.2
5,VKDE,≤ 0.2
6,ARVS,≤ 0.2
7,QMLM,≤ 0.2
8,GTIL,≤ 0.2
9,RRTA,0.619
10,WKQS,≤ 0.2
11,LALI,≤ 0.2
12,RQGW,≤ 0.2
13,KYLS,≤ 0.2
14,KKWY,≤ 0.2
15,AETM,≤ 0.2
16,RACY,≤ 0.2
17,TYKS,≤ 0.2
18,QVFV,≤ 0.2
19,TYDN,≤ 0.2
20,ERAM,0.249
21,WSVS,≤ 0.2
22,WHAS,≤ 0.2
23,NYDV,≤ 0.2
24,IHCR,≤ 0.2

row,Variant,one-hybrid fitness for binding NBS DNA
1,PPFE,≤ 0.2
2,YLCL,≤ 0.2
3,ADHW,≤ 0.2
4,RNSG,≤ 0.2
5,DWVY,≤ 0.2
6,AHHM,≤ 0.2
7,HSCP,≤ 0.2
8,FNPH,≤ 0.2
9,EQQG,≤ 0.2
10,GRLN,≤ 0.2
11,IIPT,≤ 0.2
12,EYST,≤ 0.2
13,SLRS,≤ 0.2
14,QQSL,≤ 0.2
15,WTNW,≤ 0.2
16,RDCT,≤ 0.2
17,CALI,≤ 0.2
18,PNTM,≤ 0.2
19,AREP,≤ 0.2
20,LSWR,≤ 0.2
21,YHYF,≤ 0.2
22,RMYW,≤ 0.2
23,LCAV,≤ 0.2
24,TLMP,≤ 0.2

row,Variant,one-hybrid fitness for binding NBS DNA
1,PWNM,≤ 0.2
2,LIPC,≤ 0.2
3,SKWG,≤ 0.2
4,SYTA,≤ 0.2
5,MAVH,≤ 0.2
6,ETAR,≤ 0.2
7,ATSS,≤ 0.2
8,GDQS,≤ 0.2
9,IAKY,≤ 0.2
10,WTIG,≤ 0.2
11,CRSN,≤ 0.2
12,HWRS,≤ 0.2
13,CDIR,≤ 0.2
14,RGFG,≤ 0.2
15,AIHY,≤ 0.2
16,RIMC,≤ 0.2
17,RQKM,0.201
18,VSDS,≤ 0.2
19,WAKD,≤ 0.2
20,GDFS,≤ 0.2
21,IRAT,0.244
22,GNQN,≤ 0.2
23,EPDC,≤ 0.2
24,QCLT,0.487

row,Variant,one-hybrid fitness for binding NBS DNA
1,LMDV,≤ 0.2
2,WPAN,≤ 0.2
3,CWYR,≤ 0.2
4,VWQD,≤ 0.2
5,NTRA,≤ 0.2
6,KSAI,≤ 0.2
7,ESDG,≤ 0.2
8,MVLY,≤ 0.2
9,RGGT,≤ 0.2
10,YRKT,0.288
11,EMAG,≤ 0.2
12,GPCF,≤ 0.2
13,SWIR,≤ 0.2
14,GNKI,≤ 0.2
15,AHKN,≤ 0.2
16,QINR,0.479
17,KWEG,≤ 0.2
18,GQLR,≤ 0.2
19,SNTR,≤ 0.2
20,GEGS,≤ 0.2
21,VCPP,≤ 0.2
22,KVPT,≤ 0.2
23,GCPN,≤ 0.2
24,PKNA,≤ 0.2

row,Variant,one-hybrid fitness for binding NBS DNA
1,GLPM,≤ 0.2
2,IISY,≤ 0.2
3,PPPH,≤ 0.2
4,PAEM,≤ 0.2
5,EMTT,≤ 0.2
6,GRCM,≤ 0.2
7,SGVD,≤ 0.2
8,RRWM,0.23
9,QMIY,≤ 0.2
10,KLAC,≤ 0.2
11,EIGT,≤ 0.2
12,SLPF,≤ 0.2
13,WVES,≤ 0.2
14,AETR,≤ 0.2
15,RIHK,≤ 0.2
16,DTKG,≤ 0.2
17,LVSK,≤ 0.2
18,HQHR,≤ 0.2
19,RNAQ,≤ 0.2
20,QKHM,≤ 0.2
21,EGMT,≤ 0.2
22,WIQG,≤ 0.2
23,TMAV,≤ 0.2
24,RANC,≤ 0.2

row,Variant,one-hybrid fitness for binding NBS DNA
1,ASVI,≤ 0.2
2,MTHL,≤ 0.2
3,SYLR,≤ 0.2
4,RSPS,≤ 0.2
5,KASC,≤ 0.2
6,DAYC,≤ 0.2
7,HAVC,≤ 0.2
8,FPQN,≤ 0.2
9,EGAG,≤ 0.2
10,QAGF,≤ 0.2
11,IPQH,≤ 0.2
12,VKYS,≤ 0.2
13,WMSM,≤ 0.2
14,LKRG,≤ 0.2
15,QSRH,0.535
16,NFDV,≤ 0.2
17,HIDG,≤ 0.2
18,WAEG,≤ 0.2
19,TVYE,≤ 0.2
20,MNNC,≤ 0.2
21,LFHC,≤ 0.2
22,ASAW,≤ 0.2
23,SEKG,≤ 0.2
24,IEQS,≤ 0.2

row,Variant,one-hybrid fitness for binding NBS DNA
1,KMQG,≤ 0.2
2,SHID,≤ 0.2
3,KEVR,≤ 0.2
4,MSIG,≤ 0.2
5,KQSH,≤ 0.2
6,NCHC,≤ 0.2
7,KAEM,≤ 0.2
8,LMKV,≤ 0.2
9,MHQL,≤ 0.2
10,TATF,≤ 0.2
11,TMDA,≤ 0.2
12,NSME,≤ 0.2
13,FWPR,0.486
14,ENSG,≤ 0.2
15,SLWS,≤ 0.2
16,WTKG,≤ 0.2
17,RALS,0.283
18,VNAS,≤ 0.2
19,LMHG,≤ 0.2
20,SFGG,≤ 0.2
21,NAYS,≤ 0.2
22,MPER,≤ 0.2
23,ARPP,≤ 0.2
24,QTVK,≤ 0.2

row,Variant,one-hybrid fitness for binding NBS DNA
1,IPHC,≤ 0.2
2,ARYY,≤ 0.2
3,QWNT,≤ 0.2
4,VPRS,≤ 0.2
5,PTET,≤ 0.2
6,TARC,≤ 0.2
7,QWTQ,≤ 0.2
8,QVTM,≤ 0.2
9,PCPT,≤ 0.2
10,KQNY,≤ 0.2
11,RCTC,≤ 0.2
12,RDHI,≤ 0.2
13,AHLT,≤ 0.2
14,STQT,≤ 0.2
15,RNNN,≤ 0.2
16,EAKT,≤ 0.2
17,VAGI,≤ 0.2
18,FYPL,≤ 0.2
19,RLPE,≤ 0.2
20,DPGG,≤ 0.2
21,QLGE,≤ 0.2
22,ANIS,≤ 0.2
23,NLVY,≤ 0.2
24,RCGT,0.462

row,Variant,one-hybrid fitness for binding NBS DNA
1,EFKS,≤ 0.2
2,WRAI,≤ 0.2
3,GRRF,≤ 0.2
4,KLII,≤ 0.2
5,SYWR,≤ 0.2
6,VVGT,≤ 0.2
7,PDDC,≤ 0.2
8,PYWF,≤ 0.2
9,QVFP,≤ 0.2
10,STDS,≤ 0.2
11,VLIR,≤ 0.2
12,KQRM,≤ 0.2
13,SLLA,≤ 0.2
14,AQGS,≤ 0.2
15,VRSM,≤ 0.2
16,NWLG,≤ 0.2
17,VLPY,≤ 0.2
18,RWQL,≤ 0.2
